# Measured values: the supplement of paper PMC8728848
# The other results are listed elsewhere or left out.
# B1: SAOUHSC 00176 (Staphylococcus aureus) (protein)
# chain: MSKILKCITLAVVMLLIVTACGPNRSKEDIDKALNKDNSKDKPNQLTMWVDGDKQMAFYKKITDQYTKKTGIKVKLVNIGQNDQLENISLDAPAGKGPDIFFLAHDNTGSAYLQGLAAEIKLSKDELKGFNKQALKAMNYDNKQLALPAIVETTALFYNKKLVKNAPQTLEEVEANAAKLTDSKKKQYGMLFDAKNFYFNYPFLFGNDDYIFKKNGSEYDIHQLGLNSKHVVKNAERLQKWYDKGYLPKAATHDVMIGLFKEGKVGQFVTGPWNINEYQETFGKDLGVTTLPTDGGKPMKPFLGVRGWYLSEYSKHKYWAKDLMLYITSKDTLQKYTDEMSEITGRVDVKSSNPNLKVFEKQARHAEPMPNIPEMRQVWEPMGNASIFISNGKNPKQALDEATNDITQNIKILHPSQNDKKGD
# Tests used:
# Assay in all cases: glycan array binding signal (z-score within array); higher = stronger binding
# Settings in all cases: glycan notation: IUPAC condensed, linker removed
# [1] = target: Fuc(a1-3)[Gal3S(b1-4)]GlcNAc6S
# Outline: (§1)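 From the Consortium for Functional Glycomics database, 3228 arrays were curated, keeping only those whose protein sequence was available. Binding is given as a within-array Z-score averaged across arrays sharing a protein sequence and across linkers. Negative Z-scores can be read as non-binding.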
# [2] = target: Fuc(a1-3)[GalNAc(b1-4)]GlcNAc
# Outline: as §1
# [3] = target: Fuc(a1-3)[GalNAc(b1-4)]GlcNAc6S
# Outline: as §1
# Fuc(a1-4)GlcNAc = target: Fuc(a1-4)GlcNAc
# Outline: as §1
# Fuc(b1-3)GlcNAc = target: Fuc(b1-3)GlcNAc
# Outline: as §1
# Gal(a1-2)Gal = target: Gal(a1-2)Gal
# Outline: as §1
# Gal(a1-3)Gal = target: Gal(a1-3)Gal
# Outline: as §1
# Gal(a1-3)Gal(b1-3)GlcNAc = target: Gal(a1-3)Gal(b1-3)GlcNAc
# Outline: as §1
# [4] = target: Gal(a1-3)Gal(b1-3)GlcNAc(b1-2)Man
# Outline: as §1
# [5] = target: Gal(a1-3)Gal(b1-3)GlcNAc(b1-2)Man(a1-3)[Gal(a1-3)Gal(b1-3)GlcNAc(b1-2)Man(a1-6)]Man(b1-4)GlcNAc(b1-4)GlcNAc
# Outline: as §1
# [6] = target: Gal(a1-3)Gal(b1-3)GlcNAc(b1-3)GalNAc
# Outline: as §1
# [7] = target: Gal(a1-3)Gal(b1-3)GlcNAc(b1-6)GalNAc
# Outline: as §1
# [8] = target: Gal(a1-3)Gal(b1-3)[Fuc(a1-4)]GlcNAc(b1-2)Man(a1-3)[Gal(a1-3)Gal(b1-3)[Fuc(a1-4)]GlcNAc(b1-2)Man(a1-6)]Man(b1-4)GlcNAc(b1-4)GlcNAc
# Outline: as §1
# Gal(a1-3)Gal(b1-4)Glc = target: Gal(a1-3)Gal(b1-4)Glc
# Outline: as §1
# Gal(a1-3)Gal(b1-4)GlcNAc = target: Gal(a1-3)Gal(b1-4)GlcNAc
# Outline: as §1
# [9] = target: Gal(a1-3)Gal(b1-4)GlcNAc(b1-2)Man
# Outline: as §1
# [10] = target: Gal(a1-3)Gal(b1-4)GlcNAc(b1-2)Man(a1-3)[Gal(a1-3)Gal(b1-4)GlcNAc(b1-2)Man(a1-6)]Man(b1-4)GlcNAc(b1-4)GlcNAc
# Outline: as §1
# [11] = target: Gal(a1-3)Gal(b1-4)GlcNAc(b1-3)GalNAc
# Outline: as §1
# [12] = target: Gal(a1-3)Gal(b1-4)GlcNAc(b1-6)GalNAc
# Outline: as §1
# [13] = target: Gal(a1-3)Gal(b1-4)[Fuc(a1-3)]GlcNAc
# Outline: as §1
# [14] = target: Gal(a1-3)Gal(b1-4)[Fuc(a1-3)]GlcNAc(b1-2)Man(a1-3)[Gal(a1-3)Gal(b1-4)[Fuc(a1-3)]GlcNAc(b1-2)Man(a1-6)]Man(b1-4)GlcNAc(b1-4)GlcNAc
# Outline: as §1
# Gal(a1-3)GalNAc = target: Gal(a1-3)GalNAc
# Outline: as §1
# [15] = target: Gal(a1-3)[Gal(a1-4)]Gal(b1-4)GlcNAc
# Outline: as §1
# [16] = target: Gal(a1-4)Gal(b1-3)GlcNAc(b1-2)Man(a1-3)[Gal(a1-4)Gal(b1-3)GlcNAc(b1-2)Man(a1-6)]Man(b1-4)GlcNAc(b1-4)GlcNAc
# Outline: as §1
# Gal(a1-4)Gal(b1-4)Glc = target: Gal(a1-4)Gal(b1-4)Glc
# Outline: as §1
# Gal(a1-4)Gal(b1-4)GlcNAc = target: Gal(a1-4)Gal(b1-4)GlcNAc
# Outline: as §1
# [17] = target: Gal(a1-4)Gal(b1-4)GlcNAc(b1-2)Man(a1-3)[Gal(a1-4)Gal(b1-4)GlcNAc(b1-2)Man(a1-6)]Man(b1-4)GlcNAc(b1-4)GlcNAc
# Outline: as §1
# [18] = target: Gal(a1-4)Gal(b1-4)GlcNAc(b1-3)Gal(b1-4)Glc
# Outline: as §1
# Gal(a1-4)GlcNAc = target: Gal(a1-4)GlcNAc
# Outline: as §1
# Gal(a1-6)Glc = target: Gal(a1-6)Glc
# Outline: as §1
# Gal(b1-2)Gal = target: Gal(b1-2)Gal
# Outline: as §1
# Gal(b1-3)Gal = target: Gal(b1-3)Gal
# Outline: as §1
# Gal(b1-3)Gal(b1-4)GlcNAc = target: Gal(b1-3)Gal(b1-4)GlcNAc
# Outline: as §1
# Gal(b1-3)GalNAc = target: Gal(b1-3)GalNAc
# Outline: as §1
# [19] = target: Gal(b1-3)GalNAc(a1-3)[Fuc(a1-2)]Gal(b1-4)Glc
# Outline: as §1
# [20] = target: Gal(b1-3)GalNAc(a1-3)[Fuc(a1-2)]Gal(b1-4)GlcNAc
# Outline: as §1
# Gal(b1-3)GalNAc(b1-3)Gal = target: Gal(b1-3)GalNAc(b1-3)Gal
# Outline: as §1
binder,measurement,setting,value
B1,glycan array binding signal (z-score),[1],-0.175
same,glycan array binding signal (z-score),[2],-0.119
same,glycan array binding signal (z-score),[3],-0.072
same,glycan array binding signal (z-score),Fuc(a1-4)GlcNAc,0.037
same,glycan array binding signal (z-score),Fuc(b1-3)GlcNAc,-0.001
same,glycan array binding signal (z-score),Gal(a1-2)Gal,-0.022
same,glycan array binding signal (z-score),Gal(a1-3)Gal,-0.146
same,glycan array binding signal (z-score),Gal(a1-3)Gal(b1-3)GlcNAc,-0.106
same,glycan array binding signal (z-score),[4],-0.146
same,glycan array binding signal (z-score),[5],0.584
same,glycan array binding signal (z-score),[6],-0.107
same,glycan array binding signal (z-score),[7],-0.038
same,glycan array binding signal (z-score),[8],0.078
same,glycan array binding signal (z-score),Gal(a1-3)Gal(b1-4)Glc,-0.01
same,glycan array binding signal (z-score),Gal(a1-3)Gal(b1-4)GlcNAc,-0.063
same,glycan array binding signal (z-score),[9],-0.176
same,glycan array binding signal (z-score),[10],0.006
same,glycan array binding signal (z-score),[11],-0.09
same,glycan array binding signal (z-score),[12],-0.149
same,glycan array binding signal (z-score),[13],-0.12
same,glycan array binding signal (z-score),[14],-0.104
same,glycan array binding signal (z-score),Gal(a1-3)GalNAc,-0.05
same,glycan array binding signal (z-score),[15],-0.077
same,glycan array binding signal (z-score),[16],0.014
same,glycan array binding signal (z-score),Gal(a1-4)Gal(b1-4)Glc,-0.013
same,glycan array binding signal (z-score),Gal(a1-4)Gal(b1-4)GlcNAc,-0.128
same,glycan array binding signal (z-score),[17],0.197
same,glycan array binding signal (z-score),[18],-0.181
same,glycan array binding signal (z-score),Gal(a1-4)GlcNAc,-0.034
same,glycan array binding signal (z-score),Gal(a1-6)Glc,-0.088
same,glycan array binding signal (z-score),Gal(b1-2)Gal,-0.068
same,glycan array binding signal (z-score),Gal(b1-3)Gal,-0.022
same,glycan array binding signal (z-score),Gal(b1-3)Gal(b1-4)GlcNAc,-0.027
same,glycan array binding signal (z-score),Gal(b1-3)GalNAc,-0.068
same,glycan array binding signal (z-score),[19],0.001
same,glycan array binding signal (z-score),[20],-0.133
same,glycan array binding signal (z-score),Gal(b1-3)GalNAc(b1-3)Gal,-0.016
